# Measured values taken from the supplement of paper PMC8728848.
# The other results are listed elsewhere or left out.
# Assays:
# Assay in all cases: glycan array binding signal (z-score within array); higher = stronger binding
# Conditions in all cases: glycan notation: IUPAC condensed, linker removed
# [1] = target: Neu5Ac(a2-3)Gal(b1-3)[Fuc(a1-4)]GlcNAc
# Summary of the method: (§1)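 Glycan array data were curated from 3228 arrays in the Consortium for Functional Glycomics database and kept only where the protein sequence was available. Glycan names were converted to IUPAC-condensed notation, and columns mapping to the same glycan were averaged. The binding signal is a within-array Z-score, averaged across arrays of the same protein sequence at different concentrations or buffers and across linkers. Negative Z-scores can be read as non-binding.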
# [2] = target: Neu5Ac(a2-3)Gal(b1-3)[Fuc(a1-4)]GlcNAc(b1-3)Gal(b1-4)[Fuc(a1-3)]GlcNAc
# Summary of the method: as §1
# [3] = target: Neu5Ac(a2-3)Gal(b1-3)[Neu5Ac(a2-3)Gal(b1-4)]GlcNAc
# Summary of the method: as §1
# [4] = target: Neu5Ac(a2-3)Gal(b1-3)[Neu5Ac(a2-6)]GalNAc
# Summary of the method: as §1
# Neu5Ac(a2-3)Gal(b1-4)Glc = target: Neu5Ac(a2-3)Gal(b1-4)Glc
# Summary of the method: as §1
# [5] = target: Neu5Ac(a2-3)Gal(b1-4)GlcNAc
# Summary of the method: as §1
# [6] = target: Neu5Ac(a2-3)Gal(b1-4)GlcNAc(b1-2)Man(a1-3)[GlcNAc(b1-2)Man(b1-4)GlcNAc(b1-2)Man(a1-6)]Man(b1-4)GlcNAc(b1-4)GlcNAc
# Summary of the method: as §1
# [7] = target: Neu5Ac(a2-3)Gal(b1-4)GlcNAc(b1-2)Man(a1-3)[Neu5Ac(a2-6)Gal(b1-4)GlcNAc(b1-2)Man(a1-6)]Man(b1-4)GlcNAc(b1-4)GlcNAc
# Summary of the method: as §1
# [8] = target: Neu5Ac(a2-3)Gal(b1-4)GlcNAc(b1-3)Gal(b1-3)GlcNAc
# Summary of the method: as §1
# [9] = target: Neu5Ac(a2-3)Gal(b1-4)GlcNAc(b1-3)Gal(b1-4)GlcNAc
# Summary of the method: as §1
# [10] = target: Neu5Ac(a2-3)Gal(b1-4)GlcNAc(b1-3)Gal(b1-4)GlcNAc(b1-3)Gal(b1-4)GlcNAc
# Summary of the method: as §1
# [11] = target: Neu5Ac(a2-3)Gal(b1-4)GlcNAc(b1-3)Gal(b1-4)[Fuc(a1-3)]GlcNAc
# Summary of the method: as §1
# [12] = target: Neu5Ac(a2-3)Gal(b1-4)GlcNAc(b1-6)[Gal(b1-3)]GalNAc
# Summary of the method: as §1
# [13] = target: Neu5Ac(a2-3)Gal(b1-4)GlcNAc(b1-6)[Neu5Ac(a2-3)Gal(b1-3)]GalNAc
# Summary of the method: as §1
# [14] = target: Neu5Ac(a2-3)Gal(b1-4)GlcNAc6S
# Summary of the method: as §1
# [15] = target: Neu5Ac(a2-3)Gal(b1-4)[Fuc(a1-3)]GlcNAc
# Summary of the method: as §1
# [16] = target: Neu5Ac(a2-3)Gal(b1-4)[Fuc(a1-3)]GlcNAc(b1-3)Gal
# Summary of the method: as §1
# [17] = target: Neu5Ac(a2-3)Gal(b1-4)[Fuc(a1-3)]GlcNAc(b1-3)Gal(b1-4)GlcNAc
# Summary of the method: as §1
# [18] = target: Neu5Ac(a2-3)Gal(b1-4)[Fuc(a1-3)]GlcNAc(b1-3)Gal(b1-4)[Fuc(a1-3)]GlcNAc(b1-3)Gal(b1-4)[Fuc(a1-3)]GlcNAc
# Summary of the method: as §1
# [19] = target: Neu5Ac(a2-3)Gal(b1-4)[Fuc(a1-3)]GlcNAc(b1-6)[Gal(b1-3)]GalNAc
# Summary of the method: as §1
# [20] = target: Neu5Ac(a2-3)Gal(b1-4)[Fuc(a1-3)]GlcNAc6S
# Summary of the method: as §1
# [21] = target: Neu5Ac(a2-3)Gal6S(b1-4)GlcNAc
# Summary of the method: as §1
# [22] = target: Neu5Ac(a2-3)Gal6S(b1-4)[Fuc(a1-3)]GlcNAc
# Summary of the method: as §1
# Neu5Ac(a2-3)GalNAc = target: Neu5Ac(a2-3)GalNAc
# Summary of the method: as §1
# [23] = target: Neu5Ac(a2-3)GalNAc(b1-4)GlcNAc
# Summary of the method: as §1
# [24] = target: Neu5Ac(a2-3)[GalNAc(b1-4)]Gal(b1-4)Glc
# Summary of the method: as §1
# [25] = target: Neu5Ac(a2-3)[GalNAc(b1-4)]Gal(b1-4)GlcNAc
# Summary of the method: as §1
# [26] = target: Neu5Ac(a2-3)[Neu5Ac(a2-6)]GalNAc
# Summary of the method: as §1
# Neu5Ac(a2-6)Gal = target: Neu5Ac(a2-6)Gal
# Summary of the method: as §1
# Neu5Ac(a2-6)Gal(b1-4)Glc = target: Neu5Ac(a2-6)Gal(b1-4)Glc
# Summary of the method: as §1
binder,measurement,setting,value
"NESD (Drosophila melanogaster), NP_610025.1 (protein) MGHHHHHHSSGVDLGTENLYFQSMMEVFTFEKSYLERLKEAEAVLSWEGAVMPASQVRSEWKSYVELKIEPAGWQAIWKIPRVICEDLKLRYPTIVYGYVEQVIFDELKAVFVVTAVQDSDVHLPESNEVSLVELWPTVQQENAALNVDTTAECIDRLRFFYTHVWMPWDKDYDDDRDWVQQHLQARIQLVCDLSKNRLPRPLALHMRTLLAEAKYIQQRLDYLELDLSDAESDDEAVELNDSVAEPARKQSKAGSANGCLNVSSLPVTDLMCLHLRMAIIRSEFEILENPEMRRAYSELQSNSLKRLRCSSGRTRQSEDLLVERNSISHVVTLPGKLQQQLELLKLAQTLVKPESKVQLSNTLQDVLSICQSNDDILLSPGEHTIKFLEHLNDNGSLRGLTQPEAILSPAADLSLLPVVCSSDEDSTLLVIDGDYTLSELVLDCRHVRRGILLRNGTLTMRGCRLLGDGSSSTQEGIVCMPGASVELKSCLIENFAVGVSMRPKSSAELGSVQFKTCKTGLELLEKSASVNLQGSKCSFENCALGILADGFVLGEQRTEKVLVLNKFSELQRYNEDNLLGNCSFYNCKKNVRVFNESGQLLAQRSHQQLLEDELGGENKENIQLV",glycan array binding signal (z-score),[1],-0.357
same,glycan array binding signal (z-score),[2],-0.114
same,glycan array binding signal (z-score),[3],-0.231
same,glycan array binding signal (z-score),[4],-0.152
same,glycan array binding signal (z-score),Neu5Ac(a2-3)Gal(b1-4)Glc,-0.277
same,glycan array binding signal (z-score),[5],0.042
same,glycan array binding signal (z-score),[6],-0.593
same,glycan array binding signal (z-score),[7],-0.237
same,glycan array binding signal (z-score),[8],0.025
same,glycan array binding signal (z-score),[9],-0.571
same,glycan array binding signal (z-score),[10],0.395
same,glycan array binding signal (z-score),[11],-0.129
same,glycan array binding signal (z-score),[12],-0.088
same,glycan array binding signal (z-score),[13],-0.732
same,glycan array binding signal (z-score),[14],-0.023
same,glycan array binding signal (z-score),[15],-0.028
same,glycan array binding signal (z-score),[16],-0.136
same,glycan array binding signal (z-score),[17],0.005
same,glycan array binding signal (z-score),[18],-0.689
same,glycan array binding signal (z-score),[19],0.059
same,glycan array binding signal (z-score),[20],0.068
same,glycan array binding signal (z-score),[21],0.267
same,glycan array binding signal (z-score),[22],0.691
same,glycan array binding signal (z-score),Neu5Ac(a2-3)GalNAc,-0.159
same,glycan array binding signal (z-score),[23],-0.017
same,glycan array binding signal (z-score),[24],-0.137
same,glycan array binding signal (z-score),[25],-0.191
same,glycan array binding signal (z-score),[26],-0.323
same,glycan array binding signal (z-score),Neu5Ac(a2-6)Gal,-0.359
same,glycan array binding signal (z-score),Neu5Ac(a2-6)Gal(b1-4)Glc,-0.248
